Experimental data as given in PubChem BioAssay AID488969 (Vanderbilt High Throughput Screening Facility, 2010).
The full ranking holds about 110,000 compounds; the median of “z-score” is about -0.1, and the highest 2% start at about 2. This is one part of the list. The source made the active and inactive calls.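 Rule for the calls: active = z-score in the third read window above 3 or below -3; inactive = the rest.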

Biological target: Metabotropic glutamate receptor 8 (Rattus norvegicus) (UniProt P70579)
Sequence of UniProt P70579 (P70579 whole entry, looked up): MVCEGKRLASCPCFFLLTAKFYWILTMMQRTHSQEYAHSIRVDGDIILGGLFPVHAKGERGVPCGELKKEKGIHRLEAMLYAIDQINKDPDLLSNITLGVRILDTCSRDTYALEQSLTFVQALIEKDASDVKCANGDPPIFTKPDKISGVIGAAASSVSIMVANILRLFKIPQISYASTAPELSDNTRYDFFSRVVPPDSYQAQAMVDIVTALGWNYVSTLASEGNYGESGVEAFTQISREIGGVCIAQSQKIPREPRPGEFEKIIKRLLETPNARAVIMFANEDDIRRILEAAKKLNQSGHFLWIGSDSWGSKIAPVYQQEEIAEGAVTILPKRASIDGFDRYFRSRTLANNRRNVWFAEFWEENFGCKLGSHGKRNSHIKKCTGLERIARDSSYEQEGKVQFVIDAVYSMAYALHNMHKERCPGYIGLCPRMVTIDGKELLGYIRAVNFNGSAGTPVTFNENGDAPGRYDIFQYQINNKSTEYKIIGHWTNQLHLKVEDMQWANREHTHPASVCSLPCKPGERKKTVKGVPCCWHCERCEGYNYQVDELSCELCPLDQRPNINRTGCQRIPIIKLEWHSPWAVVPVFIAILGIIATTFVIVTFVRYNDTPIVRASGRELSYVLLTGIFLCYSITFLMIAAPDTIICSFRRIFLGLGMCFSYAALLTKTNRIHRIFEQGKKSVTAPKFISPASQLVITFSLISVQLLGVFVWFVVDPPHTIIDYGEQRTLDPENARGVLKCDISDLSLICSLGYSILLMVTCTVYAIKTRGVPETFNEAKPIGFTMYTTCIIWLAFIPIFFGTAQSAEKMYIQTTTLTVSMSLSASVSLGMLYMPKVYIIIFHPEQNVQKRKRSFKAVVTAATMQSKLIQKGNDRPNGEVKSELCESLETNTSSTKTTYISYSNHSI
Experiment: rat mGluR8 modulators via GIRK flux, primary screen, cell-based, thallium flux, HTS (AID 488969)
Settings: HEK293 rat mGluR8, GIRK (G protein-gated inwardly rectifying potassium channel) thallium flux, FluoZin2; at 10 µM; stronger effect = higher value; submaximal glutamate (EC20) added with thallium

Row | SMILES | z-score
1 | O=C(Nc1ccc(O)cc1)C1CCCO1 (stereo not drawn) | 0.459
2 | COc1ccc(C(=S)Nc2ccc(N(C)C)cc2)cc1 | 0.0803
3 | CN(c1ccccc1)S(=O)(=O)c1ccc(C(=O)OCC(=O)N2CCOCC2)cc1 | 0.719
4 | CCOC(=O)CSc1nc(C)cc(C)c1C#N | -0.43
5 | Cn1c(-c2cc3ccc(OC(=O)C(C)(C)C)cc3oc2=O)nc2ccccc21 | -0.174
6 | CC1CCCCC1n1c(=S)[nH]c2ccccc2c1=O (stereo not drawn) | active: 16.2
7 | CN(C)C(=O)CSc1nnc(Cc2ccc([N+](=O)[O-])cc2)o1 | -0.065
8 | CC(C)Oc1ccc2c(c1)OC(c1ccccc1)(C(F)(F)F)NC2=O (stereo not drawn) | -0.285
9 | COc1ccc(S(=O)(=O)n2nc(OC(=O)c3cccs3)cc2N)cc1 | -0.212
10 | CN(C)CCCN(CCCNC(=O)/C=N/O)Cc1ccccc1 | -0.107
11 | Cn1c(Cn2c(=O)sc3ccccc32)nnc1SCc1ccccc1F | -0.235
12 | CCOC(=O)C1CCCN(C(=O)CCc2ccccc2)C1 (stereo not drawn) | 0.612
13 | O=C(NNc1ccc([N+](=O)[O-])cc1)C1CC2CCCC(C1)C2=O (stereo not drawn) | -0.109
14 | COc1ccccc1NC(=O)c1ccccc1NS(C)(=O)=O | -0.0773
15 | CCOC(=O)CCC(=O)Nc1cccc([N+](=O)[O-])c1 | 0.0456
16 | CC(=O)Nc1cccc(Cn2cccn2)c1 | -0.044
17 | CC[C@H](C)[C@H](NC(N)=O)C(=O)Nc1ccc(C)cc1 | 0.201
18 | O=C(Cc1cccs1)N1CCN(c2ccc(F)cc2)CC1 | 0.065
19 | Cc1ccc(C(=O)NC(=S)Nc2cccc3nsnc23)cc1 | 1.1
20 | COc1ccc(N(C(=O)c2cccc([N+](=O)[O-])c2)S(=O)(=O)c2ccc3c(c2)n(C)c(=O)n3C)cc1 | -0.184
21 | CCNC(=O)c1ccccc1NC(=O)c1cccc(S(=O)(=O)N2CCC(C)CC2)c1 | -1.17
22 | CC1CCN(S(=O)(=O)c2cccc(C(=O)N(C)C3CCS(=O)(=O)C3)c2)CC1 (stereo not drawn) | -0.196

Row | SMILES | z-score
23 | CC(C)C(NC(=O)c1ccc(C(C)(C)C)cc1)C(=O)OCC(=O)NC(=O)Cc1ccccc1 (stereo not drawn) | -0.491
24 | O=C(Nc1ccc(Oc2ccc(NC(=O)c3ccco3)c(NC(=O)c3ccco3)c2)cc1)c1ccco1 | -1.59
25 | Cc1ccc(C2CC(c3ccccc3OC(F)F)Nc3ncnn32)cc1 (stereo not drawn) | 0.677
26 | CC(C)(C)C1CCc2c(sc(N)c2C(N)=O)C1 (stereo not drawn) | 0.466
27 | O=C(COc1ccc(-c2ccccc2)cc1)N/N=C/c1ccccc1Br | 0.735
28 | COC(=O)C(C)n1cnc2c(nnn2-c2ccc(OC)cc2)c1=O (stereo not drawn) | 0.0276
29 | CCOc1ccc(C(=O)NC(=S)Nc2ccccc2OC)cc1[N+](=O)[O-] | -0.13
30 | Cc1ccc(-n2nc3ccc(NC(=O)/C=C/c4ccco4)cc3n2)cc1C | -0.0621
31 | O=C(O)c1ccc(S(=O)(=O)c2ccc3c(c2)C(=O)N(Cc2ccco2)C3=O)cc1 | 0.095
32 | Cc1cc(N(CN2CCCC2=O)C(=O)c2ccccc2)no1 | -0.368
33 | Cn1c(N2CCCCC2)nc2c1c(=O)n(Cc1cccc(Br)c1)c(=O)n2C | -0.647
34 | CC1(NC(=S)NCCO)CCS(=O)(=O)C1 (stereo not drawn) | -0.248
35 | N#Cc1ccccc1NC(=O)COC(=O)c1ccc2c(c1)OCCO2 | 0.88
36 | O=c1c2nnn(Cc3ccccc3)c2ncn1-c1ccccc1 | -0.0489
37 | CCOC(=O)CSc1nnc(-c2ccccc2)c(=O)[nH]1 | -0.438
38 | Cc1sc2ncnc(N[C@@H](CCC(=O)O)C(=O)O)c2c1C | 0.408
39 | N#CC1=C(N)Oc2cc(N)ccc2C1c1ccsc1 (stereo not drawn) | -2.64
40 | Cc1ccc([N+](=O)[O-])cc1N=C(c1cccc(Br)c1)N1CCOCC1 | -0.401
41 | CC1=CC(C)C2(CO)COC(c3cccnc3)C1C2C (stereo not drawn) | -0.00616
42 | CCN(CC)CCN1C(=O)Cn2c(C)c(C)c3cccc1c32 | 0.718
43 | CC(=O)N(C)c1ccc(NC(=S)Nc2ccccc2)cc1 | -0.008
44 | Cc1c(CN(C)C(=O)c2ccc(Br)o2)cnn1C | 0.01

Row | SMILES | z-score
45 | CC(C(=O)NC1CCCC1)N(C(=O)CS(=O)CC(=O)Nc1ccc(F)cc1)c1ccc2c(c1)OCCO2 (stereo not drawn) | -0.0988
46 | Cc1cc(C(=O)N/N=C\c2ccc(COc3ccc([N+](=O)[O-])cc3)o2)ccc1[N+](=O)[O-] | -0.167
47 | Cc1ccc(S(=O)(=O)Nc2ccc(S(=O)(=O)Nc3ncccn3)cc2)cc1 | -0.379
48 | CCOC(=O)c1ccc(N2C(=O)CC(NC3CCN(C(=O)c4ccc(F)cc4)CC3)C2=O)cc1 (stereo not drawn) | -0.0183
49 | Cc1cc(-c2n[nH]c(=S)n2/N=C/c2ccc(C)s2)n[nH]1 | -0.0648
50 | COc1ccc(CCNC2CC(=O)N(CCc3ccc(OC)c(OC)c3)C2=O)cc1 (stereo not drawn) | 0.274
51 | COc1ccccc1/C=C/C=C1\Oc2c(ccc(O)c2CN2CCN(CCO)CC2)C1=O | -1.5
52 | O=C(O)[C@H](CSCc1ccccc1)NS(=O)(=O)c1ccc(F)cc1 | -0.283
53 | CNC(=S)N/N=C(\C)c1ccc(N2CCOCC2)cc1 | 0.456
54 | CCCc1cc(=O)n2[nH]c(-c3ccccc3)cc2n1 | 0.844
55 | O=C(OCc1nc2ccccc2s1)[C@@H]1CCCN1S(=O)(=O)c1ccccc1F | -0.557
56 | COc1ccc(C(C(=O)NC2CCCC2)N(C(=O)c2snc(-c3ccc(F)cc3)c2N)c2ccc(F)cc2)cc1 (stereo not drawn) | 0.297
57 | Cc1nn(-c2ccc(C(=O)O)cc2)c(N)c1-c1ccccc1 | 1.39
58 | N#C/C(=C\c1cccs1)C(=O)NCc1ccccc1 | 0.407
59 | COc1ccc(CN(C)c2ncnc(N)n2)cc1 | 0.445
60 | Cc1cc(C)cc(NC(=S)N2CCN(c3ncccn3)CC2)c1 | 0.098
61 | O=C(Nc1nc2c(s1)CCCC2)Oc1ccccc1 | -0.198
62 | Cc1cc(=O)oc(C)c1C(=O)NCc1ccco1 | -0.0307
63 | COc1ccc(-c2cc(-c3ccccc3)nc(-c3ccc4c(c3)NC(=O)CO4)c2)cc1 | -0.0947
64 | C=CCNC(=O)C(C)N1C(=O)c2ccccc2C1=O (stereo not drawn) | 0.26
65 | O=C(NC(NC(=S)Nc1ccccc1C(=O)O)C(Cl)(Cl)Cl)c1cccc([N+](=O)[O-])c1 (stereo not drawn) | -0.0684
66 | O=C1NC(c2cccs2)Nc2ccccc21 (stereo not drawn) | -0.413

Row | SMILES | z-score
67 | Cc1ccc(S(=O)(=O)NC(CC(C)C)C(=O)Oc2ccc3c4c(c(=O)oc3c2)CCC4)cc1 (stereo not drawn) | 0.186
68 | CN(C)CC(O)COc1ccc(-c2ccc(C#N)cc2)cc1 (stereo not drawn) | 2.48
69 | Cc1ccc(NC(=O)COc2ccc(/C=C3/SC(=Nc4ccccc4)N(Cc4cccnc4)C3=O)cc2)cc1 | -0.121
70 | O=C(NCc1ccccn1)c1ccc(N2CCCC2=O)cc1 | -0.553
71 | Cc1ccc(S(=O)(=O)N(C)CCCC(=O)Nc2ccncc2)cc1 | 0.255
72 | O=C(NNCC(O)COc1ccccc1)c1ccccc1 (stereo not drawn) | 0.0495
73 | O=C1CC(c2ccco2)CC2=C1C(c1ccccc1)n1nc(C(F)(F)F)nc1N2 (stereo not drawn) | -0.367
74 | NC(=O)c1ccc(OCC(F)(F)C(F)(F)C(F)(F)C(F)(F)C(F)(F)C(F)F)cc1 | 0.969
75 | COc1ccc(C(=O)CC(Nc2ccc([N+](=O)[O-])cc2)c2ccc(OC)cc2)cc1 (stereo not drawn) | -0.119
76 | C/C(N)=C(/C#N)C(=O)CSc1nnc(-c2ccc3c(c2)OCO3)o1 | -0.316
77 | CCOC(=O)N1CCC(N2Cc3cccc(C(=O)NC(C)c4ccc5c(c4)OCCO5)c3C2=O)CC1 (stereo not drawn) | -0.941
78 | CC[C@@H](C(=O)n1nc(C)cc1C)[C@H](NS(=O)(=O)c1ccc(C)cc1)c1ccccc1 | -0.105
79 | O=C(CSc1nnc2n(C3CCCC3)c(=O)c3ccccc3n12)N1CCCCCC1 | 0.0381
80 | Cc1nn(Cc2ccccc2Cl)c(C)c1NC(=O)c1nc2ncccn2n1 | -0.269
81 | CCc1nnc(NC(=O)c2cc(-c3ccccc3)nn2-c2ccccc2)s1 | 0.27
82 | CSc1nc(-c2ccccc2)nc(N2CCCC2)c1C(C)=O | -0.0558
83 | COc1ccc(N(CC(=O)NCc2ccco2)S(=O)(=O)c2c(C)nn(C)c2C)cc1 | -0.0923
84 | CCOC(=O)COc1ccc(S(=O)(=O)NCc2cccnc2)cc1 | 0.014
85 | CCNC(=O)c1sc(-c2ccccc2)nc1C | -0.491
86 | CC(OC(=O)C1=Cc2ccccc2OC1)C(=O)NC1CCCC1 (stereo not drawn) | -0.171
87 | CCn1c(SCC(=O)N2CCCc3ccccc32)nc2ccccc2c1=O | -1.52
88 | O=C1Nc2ccccc2C12NCCc1c2[nH]c2ccccc12 (stereo not drawn) | -0.534

Row | SMILES | z-score
89 | Cc1c(Cl)cccc1NC(=O)C1NC(=O)CC1c1ccccc1 (stereo not drawn) | -0.0859
90 | CC1(C)C(c2cccs2)=NC(c2ccccc2)N1O (stereo not drawn) | -0.0214
91 | COc1cccc(NC(=S)/C(=C(\[O-])c2ccc(C)c([N+](=O)[O-])c2)[n+]2ccccc2)c1 | 0.00281
92 | Cc1ccc(NC(=O)Cn2nc(-c3ccccc3)nc2-c2ccccc2)c(C)c1 | -0.261
93 | O=C(Cn1nnc(-c2ccccc2)n1)Nc1ccc2c(c1)OCO2 | 0.199
94 | COc1ccc(NC(=O)c2ccco2)cc1NC(=O)c1cccc(OC(C)C)c1 | -1.75
95 | O=C(NNS(=O)(=O)c1cc(Cl)cc(Cl)c1)c1sccc1-n1cccc1 | 1.93
96 | Cc1ccc(S(=O)(=O)N(C)CC(=O)O/N=C(\N)c2ccccn2)cc1 | -0.423
97 | Fc1ccccc1-c1csc(=Nc2cccnc2)n1CCCn1ccnc1 | -1.73
98 | CS(=O)(=O)N(Cc1nnc(-c2cccs2)o1)c1ccc(Cl)cc1F | -0.694
99 | CCOc1ccc(S(=O)(=O)n2nnc3ccccc32)cc1C | -0.695
100 | COC(=O)[C@H](CCSC)NC(=O)Nc1ccc(OC)cc1OC | -0.209
101 | COc1ccc(-c2cc(C(F)(F)F)nc(SCCC(=O)N3CCN4CCCC4C3)n2)cc1 (stereo not drawn) | 0.152
102 | O=C(CCC(=O)c1ccc(F)cc1)Nc1cccnc1 | 0.386
103 | Clc1cccc(Cl)c1-c1nnc2ccc(N3CCOCC3)nn12 | -1.29
104 | O=C(COC(=O)COc1ccc(Br)cc1)NCCC1=CCCCC1 | -0.252
105 | Cc1[nH]nc2nc3c(c(OC(=O)c4ccccc4)c12)c(=O)n(C)c(=O)n3C | -0.408
106 | O=c1nc(-c2ccccc2)n(-c2ccc(Cl)cc2)[nH]1 | -0.238
107 | CC1CC(C)CN(C(=O)Cn2c(=O)n(CCCCC(=O)NC3CCCC3)c(=O)c3ccccc32)C1 (stereo not drawn) | -1.26
108 | COc1ccc(-n2c(=S)[nH]c3cc(C(=O)NCc4ccco4)ccc3c2=O)c(OC)c1 | 0.0806
